From PubChem BioAssay AID463173 (ICCB-Longwood Screening Facility, Harvard Medical School, 2010) come the findings set out here.

Out of some 52,000 compounds screened, about 4,300 (8.3%) were called active. Cut-off read from the data, not from the text of the source: active = survival mostly below about 52% (no sharp cut-off); inactive = mostly above about 56%. Some of the results follow.

In the assay the test system is DeltatarO mutant. Put plainly: S. aureus survival, RN4220 and DeltatarO strains – OD600, teichoic acid synthesis inhibitors, primary screen (AID 463173). The note with it: S. aureus RN4220 wild type/DeltatarO growth, OD600, 18 h, stronger effect = lower value, screened at 18.75 µg/mL (by protocol).
Consider `Fc1ccc(-c2nc3c4c(-c5ccccc5)c(-c5ccccc5)oc4ncn3n2)cc1`, for which the survival is inactive: 74%.

On to `Cc1cc(N2CCN(C)CC2)nc2ccc(NC(=O)Nc3ccc(F)cc3F)cc12`, for which the survival was inactive: 73%.

As to `CCOC(=O)c1ccc(N2CCN(c3cc(Cl)ccc3C)CC2)c(NC(=O)Nc2ccc(OCC)cc2)c1`, the survival was inactive: 90%.

With `CCC(Oc1ccccc1)C(=O)N1CCN(Cc2cc(=O)n3nc(-c4cccc(C)c4)sc3n2)CC1` (stereo not drawn), the survival is inactive: 98%.

As to `COc1cccc(-c2ccc3c(N)c(C(=O)c4ccc(F)cc4)sc3n2)c1`, the survival was active: 17%.

Take `CC(NC(=O)CCCN1C(=O)CCn2nc(-c3cn(C)c4ccccc34)cc21)c1ccccc1` (stereo not drawn): the survival was inactive: 88%.

For the compound `O=C(CSc1nnc(-c2cccnc2)o1)N(C1CCCCC1)C1CCCCC1`, the survival was inactive: 82%.

For the compound `CCOC(=O)c1c(C)oc2nc(C)nc(NCC3CCN(Cc4ccc(F)cc4)CC3)c12`, the survival is inactive: 102%.

With `COc1ccc(CNc2ncnc3c2cnn3-c2ccc(Cl)cc2)cc1`, the survival was inactive: 71%.

For the compound `CC(C)c1ccc(NC(=O)c2cc(S(=O)(=O)N3CCc4ccccc4C3)ccc2F)cc1`, the survival is inactive: 118%.

Consider `CCCCOC(=O)c1ccc(NC2=NS(=O)(=O)c3ccccc32)cc1`, for which the survival is inactive: 66%.

For `Cc1nn(-c2ccc(N3CCCC3)nn2)c(C)c1CCC(=O)Nc1ccccc1`, the survival was inactive: 83%.

As for `Cc1cccc(NC(=O)CCn2nc(C)c3c(C)n(-c4ccccc4)nc3c2=O)c1C`, the survival was inactive: 57%.

For the compound `Cc1ccc2cc(CN(Cc3cccnc3)C(=O)c3cccnc3)c(=O)[nH]c2c1`, the survival was inactive: 106%.

As for `Cc1ccc(-c2nc3n(n2)C(=O)CC(c2ccc(C)cc2)S3)cc1` (stereo not drawn), the survival was inactive: 90%.

As for `Cc1ccc(-n2c(=O)c3c(c4cc(C)ccc4n3C)n(CC(=O)NCC3CCCO3)c2=O)cc1` (stereo not drawn), the survival was inactive: 82%.

In the case of `Cc1ccc(NS(=O)(=O)c2c(C)nc3sccn3c2=O)c(Cl)c1`, the survival is inactive: 132%.

Take `Cc1cc(OCc2nnc(SCC(=O)OC(C)C)o2)ccc1Cl`: the survival was inactive: 96%.

`COc1cc(Cl)c(NC(=O)CC(C)S(=O)(=O)c2cc3c(cc2C)NC(=O)CO3)c(OC)c1` (stereo not drawn): the survival was inactive: 86%.

Take `Cc1ccc(NC(=O)CSc2nncn3c2cc2sccc23)cc1F`: the survival is inactive: 61%.

For the compound `CC1=C(C(=O)Nc2ccccc2)C(c2ccco2)C(C#N)=C(SCC(=O)Nc2ccccc2)N1` (stereo not drawn), the survival is inactive: 89%.

Turning to `CCOc1ccc(S(=O)(=O)N(CC(=O)NCCc2ccc(OC)cc2)c2ccccc2)cc1`, the survival was inactive: 92%.

On to `COc1ccccc1N1CCN(c2c(CN3CCCC3)c(=O)oc3ccccc23)CC1`, for which the survival is inactive: 91%.

For `O=C(Nc1ccc(Cl)c(Cl)c1)N(Cc1c[nH]c2ccccc12)C1CCCCC1`, the survival is inactive: 69%.

`COC(=O)c1ccc([C@H]2Nc3ccc(S(=O)(=O)Nc4ccc(F)cc4)cc3[C@H]3C=CC[C@H]32)cc1`: the survival was active: 53%.

For `Cc1ccc(S(=O)(=O)N2CCCc3cc(NS(=O)(=O)c4ccccc4)ccc32)cc1`, the survival is inactive: 78%.

Consider `CCOC(=O)c1ccc(N2CCN(c3ccc(F)cc3)CC2)c(NC(=O)Nc2ccc(CC)cc2)c1`, for which the survival is inactive: 119%.

Regarding `CN(C)c1ncc(C(=O)NCc2ccccc2Cl)cn1`, the survival is inactive: 74%.

On to `COc1ccc(S(=O)(=O)NCc2ccc3c(c2)CCN3C(C)=O)cc1OC`, for which the survival is inactive: 83%.

For `Cc1ccc(NC(=O)CCS(=O)(=O)c2ccc3nc(C)sc3c2)c(C)c1`, the survival was inactive: 79%.

For the compound `CCOc1ccc(CN2C(=O)c3ccccc3Sc3ccc(C(=O)NCCCN4CCOCC4)cc32)cc1`, the survival was inactive: 134%.

As for `CC(=O)c1ccc(NC(=O)CSc2nc(-c3ccccc3C)nc3c2c(=O)n(C)c(=O)n3C)cc1`, the survival is inactive: 112%.

`CCOC(=O)c1c(C)oc2nc(C)nc(N(C)Cc3ccccc3)c12`: the survival was inactive: 99%.

`CCOc1ccc(C(=O)c2cn(Cc3cccc(OC)c3)c3cc4c(cc3c2=O)OCO4)cc1`: the survival is inactive: 72%.

For `Cc1ccc(S(=O)(=O)N2CCCC2C(=O)Nc2ccc(Br)cc2)cc1` (stereo not drawn), the survival is inactive: 102%.

Regarding `O=C(CSc1ncc(-c2ccc(Cl)cc2)[nH]1)Nc1ccccc1F`, the survival was inactive: 61%.

Consider `O=C(C1CCCN(S(=O)(=O)c2cccc3nonc23)C1)N1CCN(c2cccc(C(F)(F)F)c2)CC1` (stereo not drawn), for which the survival is inactive: 67%.

Regarding `CCc1cc2cc3c(cc2nc1SCC(=O)N1CCCCC1)OCO3`, the survival was inactive: 99%.

Regarding `CCOC(=O)CNC(=O)Nc1cc(C(=O)NCc2ccc(C(C)C)cc2)ccc1N1CCCC1`, the survival is inactive: 93%.

In the case of `Cc1ccc2[nH]c(=O)c3cc(C(=O)NCc4cccc(Cl)c4)sc3c2c1`, the survival is inactive: 70%.

Take `O=C(c1ccco1)N1CCN(C2c3cccc4cccc(c34)C2NS(=O)(=O)c2ccccc2)CC1` (stereo not drawn): the survival was inactive: 73%.

As for `COc1ccccc1-c1noc(CSc2nnc(-c3ccccc3)n2-c2ccc(C)c(C)c2)n1`, the survival is inactive: 77%.

With `Cc1cc(C)c(/C=C/c2onc(C)c2S(=O)(=O)N2CCC(C(=O)Nc3cccc(C)c3C)CC2)c(C)c1`, the survival is inactive: 99%.

In the case of `CCOC(=O)c1c(C)oc2c1cc(NS(=O)(=O)c1ccc(C)cc1)c1ccccc12`, the survival is inactive: 56%.

As to `CCSc1nc2ccccc2c(=O)n1CCOC`, the survival is inactive: 99%.

In the case of `O=C(NC1CC(=O)N(c2ccc(Cl)cc2)C1)C1CCCC1` (stereo not drawn), the survival was inactive: 78%.

As to `O=C(Nc1cccnc1N1CCOCC1)c1cc2ccccc2oc1=O`, the survival was inactive: 79%.

Regarding `CCC(C)NC(=O)c1ccc2c(c1)nc1n2CCCCC1` (stereo not drawn), the survival is inactive: 81%.

In the case of `CCOc1ccc(NC(=O)CSc2nc3c([nH]c4ccccc43)c(=O)n2-c2cc(C)cc(C)c2)cc1`, the survival was inactive: 89%.

Regarding `COC(=O)c1cc2c(ccn2-c2ccc(F)cc2)n1C(C)C`, the survival is inactive: 87%.

Consider `O=C(COc1cccc(Cl)c1)N1CCC(c2nc3ccccc3o2)CC1`, for which the survival was inactive: 71%.

As to `CCOC(=O)c1c(C)oc2ccc(OCC(N)=O)cc12`, the survival is inactive: 100%.

As to `Cc1cccc(N2CCN(C(=O)c3cnc4c(C)cccn4c3=O)CC2C)c1` (stereo not drawn), the survival is active: 32%.

In the case of `O=C(NCc1ccccc1Cl)C1CCCN(C(=O)c2cnn(-c3ccc(F)cc3)c2-n2cccc2)C1` (stereo not drawn), the survival was inactive: 67%.

As for `Cc1nc2c(-c3ccccc3)c(C)nn2c(C)c1CCC(=O)NCCc1ccccc1`, the survival is inactive: 86%.

In the case of `CC(C)c1ccc(NC(=O)N2CCN(c3ccc(Cl)c(Cl)c3)CC2)cc1`, the survival is inactive: 87%.

On to `CCN1CCc2c(sc(-n3cccc3)c2C(C)NC(=O)Nc2cc(Cl)c(OC)cc2OC)C1` (stereo not drawn), for which the survival was inactive: 96%.

On to `Cc1ccc(NC(=O)c2cc(S(=O)(=O)N3CCCCCC3)ccc2F)cc1F`, for which the survival was inactive: 144%.

Turning to `Cc1sc2c(c1C)c(=O)n(Cc1ccccc1)c(=O)n2CC(=O)N(C)c1ccccc1`, the survival was inactive: 97%.

Take `CCCNC(=O)c1cnn2c(C(F)F)cc(-c3ccccc3)nc12`: the survival is inactive: 58%.

On to `CC(C)Oc1ccc(NC(=O)c2cc3ccccc3o2)cc1`, for which the survival is active: 40%.

As to `CC1(C)CC(=O)c2cc(-c3nc(-c4ccc(Cl)cc4)cs3)c(=O)[nH]c2C1`, the survival is inactive: 86%.

Turning to `CCC(=O)N1c2ccccc2C(C)(c2ccccc2)CC1(C)C` (stereo not drawn), the survival was active: -8%.

As for `CN1CCN(C(=O)c2ccc3c(c2)N(Cc2ccc(F)cc2)C(=O)c2ccccc2S3=O)CC1` (stereo not drawn), the survival was inactive: 91%.

As to `CC(C)(C)OC(=O)N1CCC(c2c(C(=O)NCc3ccccc3)cnn2-c2ccc(F)cc2)CC1`, the survival was inactive: 128%.

As for `CCOc1ccccc1NC(=O)c1cc(S(=O)(=O)N2CCOCC2)cn1C`, the survival is inactive: 71%.

`O=C(CSc1nc(-c2ccccc2)no1)N1CCN(c2ccccc2)CC1`: the survival is inactive: 99%.

In the case of `C=CCNc1nc(N2CCCCC2)nc(N2CCCCC2)n1`, the survival was inactive: 79%.

Take `O=C(c1cccn1-c1nnc(N2CCCCC2)s1)N1CCN(c2ccc(Cl)cc2)CC1`: the survival is inactive: 69%.

As for `COc1ccc(CCNc2nc3ccc(C)cc3n3cnnc23)cc1OC`, the survival is inactive: 92%.

With `CCOC(=O)CSc1nc(-c2ccc(F)cc2)cc(C(F)(F)F)c1C#N`, the survival is inactive: 73%.

Consider `CCc1ccccc1N1CC(c2nc3ccccc3n2CCOc2ccc(Cl)c(C)c2)CC1=O` (stereo not drawn), for which the survival was active: 3%.

On to `Cc1ccn2cc(-c3cccc(NC(=O)CCC(=O)O)c3)nc2c1`, for which the survival is inactive: 75%.

As for `CCNc1nc(NC(C)(C)C)nc(Oc2ccc(=O)n(-c3ccccc3)n2)n1`, the survival is inactive: 60%.

On to `CCn1c(C(=O)N2CCC(C(=O)N3CCN(c4ccc(OC)cc4)CC3)CC2)cc2sccc21`, for which the survival was active: 49%.

As to `COc1ccc(Cl)cc1N=C1NC(=O)CC(C(=O)Nc2ccccc2C(F)(F)F)S1` (stereo not drawn), the survival is inactive: 69%.

Consider `Cc1cc(C)cc(NC(=O)C(CC(C)C)NC(=O)C2CCCCC2)c1` (stereo not drawn), for which the survival was inactive: 71%.

Regarding `CN(C)c1ccc(C(=O)Nc2c(C(=O)NC(C)(C)C)oc3ccccc23)cc1`, the survival is inactive: 57%.

Regarding `CC(C)Oc1ccc(CNC(=O)c2ccc3nc(C(C)C)oc3c2)cc1`, the survival is inactive: 113%.

With `COc1ccc(-c2nc(Cn3c(=O)cc(-c4ccccc4)c4c(C)nn(C)c43)c(C)o2)cc1OC`, the survival was inactive: 73%.

As for `CC1CCN(S(=O)(=O)c2ccc3c(ccc(=O)n3CC(=O)NCc3ccc(Cl)cc3)c2)CC1`, the survival was inactive: 75%.

For `CC(=O)c1cccc(NC(=O)CCc2nc3cccnc3n2Cc2cccs2)c1`, the survival is inactive: 70%.

Consider `CC(=O)N1CCc2cc(Br)cc(S(=O)(=O)NCCc3ccc(Cl)cc3)c21`, for which the survival was active: 45%.

In the case of `c1ccc(N2CCN(Cc3nnc(-c4ccc5c(c4)OCO5)o3)CC2)cc1`, the survival is inactive: 90%.

`CC(C)Oc1ccc(C(=O)NCc2cccnc2)cc1`: the survival was inactive: 70%.

Take `CCOC(=O)c1cc2c(=O)n3ccccc3nc2n(CCOC)c1=NC(=O)c1cc2ccccc2o1`: the survival was inactive: 58%.

With `COc1ccc(C2=NS(=O)(=O)N(C)C(C(=O)Nc3ccc(OC(F)(F)F)cc3)=C2)cc1`, the survival was active: 48%.

With `CN(Cc1ccccc1)S(=O)(=O)c1nnc(NC(=O)c2ccccc2Cl)s1`, the survival was active: 29%.
